Values joined by “and” are separate entries in the source; they are usually repeats but may differ in a detail not shown here. Equal entries are not always repeated. Structures can show the parent of a compound that is named as a salt. ± gives the standard deviation of the averaged measurements. The full ranking holds about 3,200 compounds; the median of “nuclei count (viability) relative to DMSO” is about 99, and the lowest 2% start at about 16. Some of the results follow.
Test system: U2OS
Test: nuclei count (viability) relative to DMSO (% of DMSO); higher = more viable cells
Conditions: 10 µM; 24 h
Procedure: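 Primary image-based screen in U2OS cells: compounds at 10 uM for 24 h, then a 1 h o-propargyl-puromycin (OPP) pulse, click labelling, and high-throughput microscopy. Mean cytoplasmic OPP intensity and nuclei count were normalised to DMSO wells within each plate (DMSO = 100) and averaged over triplicate plates.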

Compound	nuclei count
COc1ccc(-c2ccc3c(N4CCOC[C@@H]4C)nc(N4CCOC[C@@H]4C)nc3n2)cc1CO	78.3
COC(=O)C1=C(C)NC(C)=C([N+](=O)[O-])C1c1ccccc1C(F)(F)F (stereo not given)	103
COc1cc(C(=O)OCCCN2CCCN(CCCOC(=O)c3cc(OC)c(OC)c(OC)c3)CC2)cc(OC)c1OC [Dilazep dihydrochloride]	87.4 ± 3.2
CC(C)C[C@H](NP(=O)(O)O[C@@H]1O[C@@H](C)[C@H](O)[C@@H](O)[C@H]1O)C(=O)N[C@@H](Cc1c[nH]c2ccccc12)C(=O)O [Phosphoramidon]	101
COc1c(C)c(C(=O)c2ccc(N)c(C(=O)O)c2)n2ccccc12	105
CCCCC/N=c1\ccn(Cc2ccccc2)c2ccccc12	71.3
O=C1c2c(O)cccc2Cc2cccc(O)c21 [Anthralin]	111
CN1c2cc3c(cc2N=C(c2ccc(C(=O)O)cc2)c2ccccc21)C(C)(C)CCC3(C)C	99.4
COc1nccc(-c2c(-c3ccc(F)cc3)ncn2C2CCC(O)CC2)n1 (stereo not given)	98.6
CC(=O)Nc1cccc(-n2c(=O)n(C3CC3)c(=O)c3c(Nc4ccc(I)cc4F)n(C)c(=O)c(C)c32)c1	86
C[C@@H](NCCCc1cccc(C(F)(F)F)c1)c1cccc2ccccc12 [AMG-073 HCl (Cinacalcet HCl)]	101
Nc1[nH]cnc2ncnc1-2 [Adenine]	93
Nc1[nH]cnc2ncnc1-2 [Adenine sulfate]	107
CC[N+](C)(C)c1cccc(O)c1 [Edrophonium chloride]	102
Cc1ccc(-c2csc3ncnc(SCCC(=O)O)c23)cc1	104
COc1ccc(CCN(C)CCCOc2ccc(S(=O)(=O)c3c(C(C)C)n(C)c4ccccc34)cc2)cc1OC	47.5
NCCc1c[nH]cn1 [Histamine dihydrochloride]	99.3
OC(Cn1cncn1)(Cn1cncn1)c1ccc(F)cc1F [Fluconazole]	109
CCCOc1cc(N)ccc1C(=O)OCCN(CC)CC [Propoxycaine hydrochloride]	91.2
O=C(/C=C/C#Cc1cccc(NS(=O)(=O)c2ccccc2)c1)NO [Oxamflatin]	26.2
Cc1cn[nH]c1 [Fomepizole]	104
CC(=O)OCC(=O)[C@@]1(O)CC[C@H]2[C@@H]3CCC4=CC(=O)CC[C@]4(C)[C@@]3(F)[C@@H](O)C[C@@]21C [Fludrocortisone acetate]	96.2
CC(=Cc1ccc(C(=O)O)cc1)c1ccc2c(c1)C(C)(C)CCC2(C)C	98.65 ± 0.044
COC(=O)C1=C(C)NC(C)=C(C(=O)OCCCN2CCC(c3ccccc3)(c3ccccc3)CC2)[C@@H]1c1cccc([N+](=O)[O-])c1 [(R)-(-)-Niguldipine hydrochloride]	75.8

Compound	nuclei count
Cc1ccc(C(=O)c2ccc(CC(=O)O)n2C)cc1 [Tolmetin sodium salt dihydrate]	97.7
COC(=O)Nc1nc2cc(C(=O)c3cccs3)ccc2[nH]1 [Nocodazole]	16.9 ± 1
CCCCN(CCCC)CCCOC(=O)c1ccc(N)cc1 [Butacaine]	92.1
O=C(O)CN1C(=O)c2cccc3cccc(c23)C1=O [Alrestatin]	97.9
CC[N+](C)(CC)CCOC(=O)C1c2ccccc2Oc2ccccc21 [Methantheline bromide]	102
CC(=O)OCC(=O)[C@@]1(O)CC[C@H]2[C@@H]3CCC4=CC(=O)CC[C@]4(C)[C@H]3[C@@H](O)C[C@@]21C [Cortisol acetate]	105
CC(C)c1c(C(=O)Nc2ccccc2)c(-c2ccccc2)c(-c2ccc(F)cc2)n1CC[C@@H](O)C[C@@H](O)CC(=O)O [Atorvastatin calcium (Lipitor)]	95.8
CC(C)c1c(C(=O)Nc2ccccc2)c(-c2ccccc2)c(-c2ccc(F)cc2)n1CC[C@@H](O)C[C@@H](O)CC(=O)O [Atorvastatin]	111
Cc1ncc(C[n+]2csc(CCO)c2C)c(N)n1 [Thiamine hydrochloride]	107
CC(C)Oc1ccc(-c2c[nH]cc2CN(C)CCN)cc1	96.8
CCN[C@H]1CN(CCCOC)S(=O)(=O)c2sc(S(N)(=O)=O)cc21 [Brinzolamide]	98.9
NS(=O)(=O)c1cc(C2(O)NC(=O)c3ccccc32)ccc1Cl (stereo not given) [Chlorthalidone]	101
CC(C)(C)c1cnc(CSc2cnc(NC(=O)C3CCNCC3)s2)o1	42.3
CCCCCCCCCCCCCCCC(=O)OC/C=C(C)/C=C/C=C(C)/C=C/C1=C(C)CCCC1(C)C [Retinyl palmitate]	111
C=CC(N)CCC(=O)O (stereo not given) [Vigabatrin]	105
CC(=O)Nc1ccc(C(=O)Nc2ccccc2N)cc1	73.6 ± 7.5
COc1cc2c(Nc3ccc(NC(=O)c4ccccc4)cc3)ncnc2cc1OCCCN1CCOCC1	49.8 and 53.3
O=C(O)[C@]1(Cc2cccc(Nc3nccs3)n2)CC[C@@H](Oc2cccc(Cl)c2F)CC1	77.7 ± 2.7
COc1cc2c(NC3CCN(C(C)C)CC3)nc(C3CCCCC3)nc2cc1OCCCN1CCCC1	99
CC(Cc1cccc(C(F)(F)F)c1)NCCOC(=O)c1ccccc1 (stereo not given) [Benfluorex hydrochloride]	107
CC(=O)S[C@@H]1CC2=CC(=O)CC[C@]2(C)[C@H]2CC[C@@]3(C)[C@@H](CC[C@@]34CCC(=O)O4)[C@H]12 [Spironolactone]	100 ± 4.3
C#Cc1cccc(Nc2ncnc3cc(OC)c(OCCCCCCC(=O)NO)cc23)c1	29 ± 2.8
CCCc1cc(C(N)=S)ccn1 [Prothionamide]	108
NNCCc1ccccc1 [Phenelzine sulfate]	100

Compound	nuclei count
CC(C)(O)[C@H]1CC[C@@](C)([C@H]2[C@@H](O)C[C@@]3(C)[C@@H]4C[C@H](O[C@@H]5O[C@H](CO)[C@@H](O)[C@H](O)[C@H]5O)[C@H]5C(C)(C)[C@@H](O[C@@H]6OC[C@@H](O)[C@H](O)[C@H]6O)CC[C@@]56C[C@@]46CC[C@]23C)O1 [Astragaloside A]	106
C=C1CC[C@H](O)C/C1=C/C=C1\CCC[C@]2(C)[C@@H]([C@H](C)CCCC(C)C)CC[C@@H]12 [Vitamin D3 (Cholecalciferol)]	99.7
Cn1c(CNc2ccc(C(=N)N)cc2)nc2cc(C(=O)N(CCC(=O)O)c3ccccn3)ccc21 [BIBR 953 (Dabigatran etexilate, Pradaxa)]	108
CNC1CCCN(c2c(F)cc3c(=O)c(C(=O)O)cn(C4CC4)c3c2OC)C1 (stereo not given) [Balofloxacin]	102
C[C@H]1O[C@H](O[C@H]2[C@H](O)[C@@H](O)[C@@H](O[C@H]3[C@H](O)[C@@H](O)C(O)O[C@@H]3CO)O[C@@H]2CO)[C@H](O)[C@@H](O)[C@@H]1N[C@H]1C=C(CO)[C@@H](O)[C@H](O)[C@H]1O (stereo not given in full) [Acarbose]	105 ± 4.5
Nc1ccc(CC(CC(=O)O)C(=O)O)cc1 [4-Amino-D, L-benzylsuccinic acid]	97.5
CC(C)(C=O)Cc1cc(C(C)(C)C)c(O)c(C(C)(C)C)c1	99.2
CO[C@H]1/C=C/O[C@@]2(C)Oc3c(C)c(O)c4c(O)c(c(/C=N/N5CCN(C6CCCC6)CC5)c(O)c4c3C2=O)NC(=O)/C(C)=C\C=C\[C@H](C)[C@H](O)[C@@H](C)[C@@H](O)[C@@H](C)[C@H](OC(C)=O)[C@@H]1C [Rifapentine (Priftin)]	98.5
CO[C@H]1/C=C/O[C@@]2(C)Oc3c(C)c(O)c4c(O)c(c(/C=N/N5CCN(C6CCCC6)CC5)c(O)c4c3C2=O)NC(=O)/C(C)=C\C=C\[C@H](C)[C@H](O)[C@@H](C)[C@@H](O)[C@@H](C)[C@H](OC(C)=O)[C@@H]1C [Rifapentine]	104
CC(C)(C)NC[C@@H](O)COc1cccc2c1CCCC2=O [(+) -Levobunolol hydrochloride]	99.3
N=C(N)NC(=N)NCCc1ccccc1 [Phenformin hydrochloride]	103 ± 8.1
COC(=O)[C@@H](N)CSC/C=C(\C)CC/C=C(\C)CCC=C(C)C [S-Farnesyl-L-cysteine methyl ester]	109
CN1CCC(=C2c3ccccc3C=Cc3ccccc32)CC1 [Cyproheptadine hydrochloride]	106 ± 0.78
CCc1c2c(nc3ccc(OC(=O)N4CCC(N5CCCCC5)CC4)cc13)-c1cc3c(c(=O)n1C2)COC(=O)[C@]3(O)CC [Irinotecan hydrochloride trihydrate]	57
CCc1c2c(nc3ccc(OC(=O)N4CCC(N5CCCCC5)CC4)cc13)-c1cc3c(c(=O)n1C2)COC(=O)[C@]3(O)CC [Irinotecan]	51.6
CCc1c2c(nc3ccc(OC(=O)N4CCC(N5CCCCC5)CC4)cc13)-c1cc3c(c(=O)n1C2)COC(=O)[C@]3(O)CC	56.5
CNCCC=C1c2ccccc2CCc2ccccc21 [Nortriptyline hydrochloride]	101
OC[C@H]1O[C@@H](OCCc2ccc(O)cc2)[C@H](O)[C@@H](O)[C@@H]1O [Salidroside (Rhodioloside)]	96.8
CC1=C(/C=C/C(C)=C/C=C/C(C)=C/C(=O)O)C(C)(C)CCC1O (stereo not given) [4-Hydroxyretinoic acid]	101
C[C@H]1[C@H](NC(=O)/C(=N\OC(C)(C)C(=O)O)c2csc(N)n2)C(=O)N1S(=O)(=O)O [Aztreonam]	111
C[C@H]1[C@H](NC(=O)/C(=N\OC(C)(C)C(=O)O)c2csc(N)n2)C(=O)N1S(=O)(=O)O [Aztreonam (Azactam, Cayston)]	86
Cc1c(Cl)cccc1Nc1ncccc1C(=O)O [Clonixin Lysinate]	98.6

Source: the supplement of paper PMC8183993
